# Experimental data reported in PubChem BioAssay AID1347073 (National Center for Advancing Translational Sciences (NCATS), 2019).
# The campaign covered roughly 45,000 compounds. About 200 (0.44%) were called active. Not shown: some 7% with an inconclusive outcome. The call rests on the fitted dose curve; in most records, active means well fitted activation curve with a large enough effect; inconclusive means small, poorly fitted or top-dose-only effect; inactive means no such curve, though single readings can be large or run the other way. The list shows a part of the results.
# Experiment: qHTS of TDP-43 Inhibitors: NCGC Sytravon Library Screen; further: nearly all actives have a fitted effect of over 55% in size; on growth rescue (activation): 0% is about no effect
# Conditions: yeast TDP-43 toxicity rescue, BacTiter-Glo growth, 24 h; series mostly up to 46.1 µM; growth rescue (activation): at the top concentration
# How it was run: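 TDP-43-expressing yeast, pregrown in raffinose, seeded at OD600 0.02 in galactose medium with compound for 24 hr at 30 deg C. Growth read by BacTiter-Glo luminescence, so rescue of toxicity appears as activation.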
# Potency means the concentration at half of the fitted maximal effect.
SMILES,growth rescue (activation),Potency
Cn1c(SCC(=O)O)nnc1-c1ccc(NC(=O)c2ccc(Cl)c(Cl)c2)cc1,inactive: 25.6%,
COc1cc(NC(=O)c2ccc(-c3cnn(C)c3)c3ccoc23)cc(OC)c1OC,inactive: -4.16%,
N#Cc1ccccc1S(=O)(=O)N1CCN(S(=O)(=O)c2ccc(Br)c(C(=O)O)c2)CC1,inactive: 4.2%,
CCCS(=O)(=O)NC(=O)C1(C)CCCN(C(=O)c2sccc2C)C1 (configuration not stated),inactive: 2.25%,
COCCNC(=O)C1CCCN(Cc2ccc(-c3ccccc3)cc2)CC1 (configuration not stated),inactive: 3.2%,
O=C(CN(Cc1ccc(F)cc1)S(=O)(=O)c1ccccc1)N1CCCCC1,inactive: 16.7%,
OC(CNCc1ccc(Cl)c(Cl)c1)c1ccccc1 (configuration not stated),inactive: 4.87%,
Nc1c([N+](=O)[O-])c(=O)sc2ccccc12,inactive: 2.47%,
Cc1ccccc1OCC(=O)NCCNC(=O)c1cccnc1,inactive: 14.9%,
CCOc1ccc(-c2[nH]ncc2-c2csc(C)n2)c(O)c1,inactive: 1.82%,
O=C(Cn1nc(C(=O)O)c2ccccc2c1=O)Nc1ccc2c(c1)OCO2,inactive: 21%,
CC1CCCCN1C(=O)CSc1nnc(-c2ccco2)o1 (configuration not stated),inactive: 6.11%,
Cc1cc(SCC(=O)c2cccs2)n2nc(C)c(-c3ccc(Cl)cc3)c2n1,inactive: -40%,
Cc1cccc(C(=O)Nc2cccc(C(=O)N/N=C/c3cccc(C)n3)c2)c1,inactive: 5.41%,
COc1cccc(-c2cnc3c(NC(C)=O)cc(-c4cccc(C(=O)NCCO)c4)cn23)c1,inactive: -8.75%,
O=C(c1ccc(S(=O)(=O)NCc2ccco2)cc1)N1CCN(c2ccccc2)CC1,inactive: -9.94%,
O=C(O)c1ccc(Nc2nc(-c3ccccc3)c3cc(Br)ccc3n2)cc1,inactive: 3.87%,
O=C(Nc1ccccc1Cl)c1c(F)c(F)c(F)c(F)c1F,inactive: 22.1%,
CCC1CCCCN1C(=O)COC(=O)c1cc(Br)ccc1Cl (configuration not stated),inactive: 20.8%,
COc1ccc(CCC(=O)NCC2CCCCC2)cc1OC,inactive: -7.06%,
COc1ccc(C(=O)NNC(=O)C(=O)Nc2ccc(C)c(Cl)c2)cc1,inactive: -5.98%,
CC(=O)c1cccc(-c2ccnc3c2CC(C(=O)Nc2cccc(OC(F)(F)F)c2)O3)c1 (configuration not stated),,active: 22.4 µM

SMILES,growth rescue (activation),Potency
O=C(NCCc1ccco1)c1ccc(OCc2cn3ccccc3n2)cc1,inactive: 4.47%,
Cc1c(Cl)cccc1NC(=S)NCCc1ccc(S(N)(=O)=O)cc1,inactive: -1.87%,
CCc1nc(SCC(=O)Nc2ccc(N(CC)CC)cc2)n[nH]1,inactive: 5.74%,
COc1ccc(Cl)cc1NC(=O)c1cc(-c2ccc(C)cc2O)n[nH]1,inactive: 12.5%,
Nc1nnc(SCC(=O)OCC(=O)c2ccccc2)s1,inactive: 10%,
CN1CCN(NC(=O)c2cc(S(=O)(=O)N3CCOCC3)c(Cl)cc2Cl)CC1,inactive: 13.8%,
COc1ccc(-c2csc(NC(=O)c3ccccc3NS(=O)(=O)c3ccc(F)c(F)c3)n2)cc1,inactive: -0.52%,
CCCCCn1c(=O)[nH]c2cc(C(=O)N3CCN(C(=O)OCC)CC3)ccc2c1=O,inactive: -5.87%,
COc1c(C)cccc1C(=O)NCCCNC(=O)c1ccc(C)nc1,inactive: 8.05%,
COCCN(Cc1cc2ccc(C)c(C)c2nc1Cl)C(=O)N1CCOCC1,inactive: 6.74%,
CCc1nc2ccc(C(=O)NCCCN3CCCC3=O)cn2c1N(C)C(=O)c1cccc(OC)c1,inactive: -7.92%,
O=C(O/N=C1\CCS(=O)(=O)c2sccc21)C1CC1,inactive: 5.4%,
CN(C)/C=C1\NC(=S)N(c2ccccc2)C1=O,inactive: -6.24%,
CCCS(=O)(=O)NC(=O)C1(C)CCN(C(=O)CSc2ccccc2)C1 (configuration not stated),inactive: 3.13%,
O=C(NCc1ccccn1)C(=O)NN=C1CCCCCCCCCCC1,inactive: 9.63%,
C/C(=N\Nc1ncnc2sc(C)c(C)c12)c1ccccn1,inactive: -89.6%,
Cc1ccnc(NC2CCCCC2)c1,inactive: -4.6%,
Cc1ccc(OCC(=O)O/N=C(\N)c2ccncc2)c(C)c1,inactive: 28.2%,
COc1ccc(NC(=O)N2CCCC2C(=O)Nc2ccccc2F)cc1 (configuration not stated),inactive: 12.1%,
C=CCn1cnc2scc(-c3ccc(OC)cc3)c2c1=O,inactive: 10.4%,
O=C(CCc1nc2ccccc2c(=O)[nH]1)OCCOc1ccc(Cl)cc1,inactive: 9.29%,
CCOc1ccc(-c2cc(C(=O)OC)nc3c2c(=O)n(C)c(=O)n3C)cc1,inactive: -2.64%,

SMILES,growth rescue (activation),Potency
CCC(C)NC(=O)CCC(=O)Nc1ccc2nc(N3CC(C)CC(C)C3)cc(C)c2c1 (configuration not stated),inactive: 0.962%,
COCCCn1c(=O)/c(=C\c2ccc(OC(F)F)c(OC)c2)s/c1=C(/C#N)C(=O)NCCOC,inactive: 25.2%,
CC(=O)Nc1ccc(NC(=O)C2Cc3c(-c4ccc5c(c4)OCO5)ccnc3O2)cc1 (configuration not stated),inactive: 8.27%,
CCCOCC(O)CC(CC)C(=O)NNC(=S)Nc1ccccc1 (configuration not stated),inactive: -4.04%,
CCC1(CC)NC(=O)N(CC(=O)Nc2ccc(C)cc2C)C1=O,inactive: 0.404%,
S=C(NC1CCCC1)N1CCN(c2ncccn2)CC1,inactive: 13.4%,
CCOc1ccc(NC(=O)C2CCCN(c3nc(C)cc(C)n3)C2)cc1 (configuration not stated),inactive: 13.7%,
CCOc1ccccc1NC(=O)NC1(C(=O)NCc2cccnc2)CCCCC1,inactive: 11.3%,
Cc1ccc2nc(NCC(=O)NN)nc(-c3ccccc3)c2c1,inactive: 19.5%,
Cc1ccc(S(=O)(=O)C2(S(=O)(=O)c3ccc(C)cc3)CCCC2)cc1,inactive: 27.1%,
CCN(c1ccccc1)S(=O)(=O)c1ccc(Oc2ccccc2C(C)=O)nc1,inactive: 21.1%,
COc1ccc(OC)c2c1cc(C(=O)N[C@H](C(=O)N1CCC(C(=O)O)CC1)C(C)C)n2C,inactive: -5.01%,
O=C(NCCc1ccccc1)/C(=C\c1ccc([N+](=O)[O-])cc1)NC(=O)c1ccccc1,inactive: 36.3%,
Cc1nc(N2CCC(C)CC2)c2c(C)c(C(=O)Nc3ccc(C)c(F)c3)sc2n1,inactive: 14.2%,
CCOC(=O)c1ccccc1Nc1cc(C)nc2nc(-c3ccco3)nn12,inactive: 24.1%,
Cc1csc(NC(=O)c2ccc(-c3ccc(Cl)cc3Cl)o2)n1,inactive: 5.62%,
CCn1ccnc1CNC(=O)CC1C(=O)NCCN1Cc1ccccc1F (configuration not stated),inactive: -10.2%,
COc1cc(NS(=O)(=O)c2cc(C(=O)NCCc3ccccn3)ccc2OC)cc(OC)c1,inactive: 11.2%,
CCn1c(SCC(=O)N=Nc2c(O)[nH]c3ccccc23)nc2ccccc21,inactive: -2.91%,
COc1cccc(N2CCN(c3c(C#N)c(C(F)(F)F)nn3C)CC2)c1,inactive: 29.6%,
O=C1NN(c2ccccc2)C(=O)/C1=C/c1ccc(-c2cccc(C(=O)O)c2)o1,inactive: -11.2%,
COc1ccc(CN(CC(=O)NC2CCCC2)C(=O)c2csnn2)cc1,inactive: 15.7%,

SMILES,growth rescue (activation),Potency
CCCc1nnc(SCC(=O)N2CCCC(C)C2)n1CCOC (configuration not stated),inactive: 1.42%,
Cc1nnc(SCC(=O)N(C)c2ccccc2)n1Cc1ccccc1,inactive: 0.353%,
O=C(c1ccc(OC2CCN(C(=O)c3cccnc3)CC2)cc1)N1CCCCCC1,inactive: 2.99%,
CC(C)Oc1cc(F)ccc1-c1cc(C(=O)Nc2ccccc2)[nH]n1,inactive: -0.934%,
O=C(C1CCCO1)N1CCN(C(=S)Nc2ccc(Cl)c(Cl)c2)CC1 (configuration not stated),inactive: 2.37%,
COc1ccc(-c2cc(C(F)(F)F)n3nc(C(=O)O)c(Cl)c3n2)cc1OC,inactive: 11.2%,
CC(C)C(c1nnnn1CCc1ccccc1)N1CCN(C(=O)c2ccco2)CC1 (configuration not stated),inactive: 31.9%,
COc1cccc(CNC(=O)C2CCN(S(=O)(=O)c3ccc(C)cc3)CC2)c1,inactive: -0.37%,
CCc1c(C)nc2nc(SCc3ccccc3)[nH]n2c1=O,inactive: -4.62%,
CCN(CC)S(=O)(=O)N1CCC(C(=O)NCCC2=CCCCC2)CC1,inactive: 15.7%,
Cn1cc(CN2CCC(n3nccc3NC(=O)c3ccccc3Cl)CC2)cn1,inactive: 3.19%,
CC(C)CNC(=O)CN1C(=O)NC2(CCCc3ccccc32)C1=O (configuration not stated),inactive: -2.87%,
COc1ccc(CN2CCCC(C(=O)c3ccc(SC)cc3)C2)cc1Cn1cccn1 (configuration not stated),inactive: 5.69%,
Cc1cc(=O)n2nc(N3CCCC3C(=O)NCCCN3CCCCC3)sc2n1 (configuration not stated),inactive: 3.75%,
O=C(NCCCN1CCOCC1)c1cccc(S(=O)(=O)N2CCc3ccccc3C2)c1,inactive: 5.99%,
CC(C)(C)Nc1c([N+](=O)[O-])c(=O)sc2ccccc12,inactive: 16.1%,
O=C(O)c1cc(S(=O)(=O)Nc2cccc(Oc3ccccc3)c2)ccc1Br,inactive: 4.57%,
Cc1cc(Cl)ccc1NC(=O)CN1CCCC1,inactive: 1.91%,
O=C(CCCN1C(=O)/C(=C/c2ccccc2)SC1=S)Nc1ccc(C(=O)O)c(O)c1,inactive: 3.27%,
Cc1cccc(NC(=O)NCC2CCN(c3ccc(S(=O)(=O)N4CCOCC4)cc3)CC2)c1,inactive: 11.6%,
CC(=O)c1cc2c(cc1N/C(=N/S(=O)(=O)c1ccccc1)c1ccc(Cl)cc1)OCO2,inactive: -2.2%,
CCOc1ccccc1NC(=O)COC(=O)C1CC(=O)N(c2c(C)cccc2C)C1 (configuration not stated),inactive: -2.79%,

SMILES,growth rescue (activation),Potency
O=C(CSc1cccc2cccnc12)N/N=C/c1cccnc1,inactive: 15.1%,
Cc1nc(CN2CCN(C(=O)c3ccc(Br)cc3)CC2)cs1,inactive: 10.4%,
O=C(Nc1ccon1)c1ccc(S(=O)(=O)N2CCOCC2)cc1,inactive: -18.4%,
O=C(CCc1ccccc1)NN1C(=O)C2C3C=CC(C3)C2C1=O (configuration not stated),inactive: -0.636%,
CCCN(CCC)CC(C)(C)NS(=O)(=O)c1ccc(Cl)cc1,inactive: -7.96%,
CCn1c(SCC(=O)NC2=NCCS2)nnc1C(C)NC(=O)c1ccccc1Br (configuration not stated),inactive: 1.1%,
O=C(O)/C(=C\c1ccc(Br)cc1)NC(=O)c1cccs1,inactive: -20.9%,
CCC(/C=N/NC(=O)CCCCC(=O)N/N=C/C(CC)CC)CC,inactive: 7.97%,
CCN(CCO)C(=O)CC1C(=O)NCCN1Cc1c(F)cccc1Cl (configuration not stated),inactive: 3.11%,
COc1cc2nc(Nc3ccc(C)c(Cl)c3)nc(N)c2cc1OC,inactive: 13.6%,
CCN(CC)c1ncnc2c1ncn2[C@H]1CN(Cc2ccc(Cl)cc2)C[C@@H](CO)O1,inactive: 4.75%,
Cc1ccccc1OCc1n(CC(=O)OC2CC(C)CCC2C(C)C)c2ccccc2[n+]1C (configuration not stated),inactive: -1.63%,
CCCn1c(SCC(=O)NCc2ccc(C)cc2)n[nH]c1=O,inactive: 12.1%,
CC1(C(=O)NCc2cccc3ccccc23)CCN1Cc1ccccc1OC(F)F (configuration not stated),inactive: -4.03%,
Cc1cc(NC(=O)c2cc3ccccc3o2)no1,inactive: -2.59%,
Cc1nc2c(o1)CCc1ccccc1C2N1CCN(C)CC1 (configuration not stated),,inactive
Cc1nc2cc3c(cc2c(C)c1C(=O)OC(C)C)OCO3,inactive: -2.14%,
CNC(=O)COC(=O)c1ccc(Cl)c(S(=O)(=O)N2CCCC2)c1,inactive: -9.45%,
S=c1[nH]nc(COc2cccc(Cl)c2)n1Cc1ccccc1,inactive: 26.2%,
